To fix the notation:
B1: chr7:65419240:65419241:+_ENSG00000196715_ENST00000360768|hu_hu|motif|central (ssRNA)
RNA: GGGAGUUCUACAGUCCGACGAUCCGGGCGUCAGUCCUGCUUGGGUUGCAGCUGCCGCUUCCAGGCCUCGUUCAAGUAAACGGGUCGUUUGUAGUUGAUAAUGAGAAGAAGGAAGUUCAGCACGUACGUGACGAUGCAGAUGAUCAACAGAGGAUUGAGCAUCA
B2: 133328640_133340391_102_CDS_ENSG00000213585_ENST00000395044|human|control|control (ssRNA)
RNA: GGGAGUUCUACAGUCCGACGAUCGCCCUUGGUGAAGACAUCCCUGGCAGAUUUGCCAAGAUCGGCAUACGUGGGUGGCACAGCCAUCUUCUCAGAGGAUGUGGCGGCGGGCUCGGAGGCGGCUACGGCGGGGGCUGCGACGCGCAACAGAGGAUUGAGCAUCA
B3: chr2:230668852:230668853:-_ENSG00000153827_ENST00000389045|hu_hu|FALSE|FALSE (ssRNA)
RNA: GGGAGUUCUACAGUCCGACGAUCUAUCCUAAGAAUUGCUCUAAGGCACUUAUGUCUGACCGCAGGUCCUGCUGAGGAACUAUACACUUCAUAAAGAACACCAAAUAAUGUCUUAAUAAAAGACUUAGCCAGUUCCGGAUCCUCCAACAGAGGAUUGAGCAUCA
B4: chr5:162869536:162869537:+_ENSG00000113328_ENST00000340828|hu_hu|FALSE|FALSE (ssRNA)
RNA: GGGAGUUCUACAGUCCGACGAUCAUAAUCCAGUUAAGGGACCAUUUCAGGAAUUGUUGGAAGGUGAGUUAUUCUGUAGUAGCUAUGCUUCAAUUGCCGUGCAGUACGCCCAGAAACAAUCCAUUUCAACUUCUGAACAUUUGGCAACAGAGGAUUGAGCAUCA
B5: chr14:76904430:76904431:+_ENSMUSG00000022010_ENSMUST00000022587|mus_mus|mus_mus_mus_hu_True|78_88 (ssRNA)
RNA: GGGAGUUCUACAGUCCGACGAUCUGCAGCCAAAAACACCCUCGUGGCGGGAGGGAGCAAGCUCCAGCAGCCUUGUAUAAGCUAGAUAAAAUCUUCUGGCUUUCCGCAGCCCAGGGAGAAACAGAAAACGGCAGCCCUAAUUUACAACAGAGGAUUGAGCAUCA
B6: chr17:32491890:32491891:-_ENSMUSG00000024050_ENSMUST00000163107|mus_mus|FALSE|FALSE (ssRNA)
RNA: GGGAGUUCUACAGUCCGACGAUCGCCUCCAAGAGGCGCCGGUUUGAGGUUUUGGCUUGCUCCUUUGGAAACGGAAAAGAAAGAUGGAAAAGGGGGAGAGGACAGAGGAGAAAUGGGAGGGGAUAGGUGGCACAAAAGGGGAUCCAACAGAGGAUUGAGCAUCA
B7: 20712990_20713110_4682_CDS_ENSMUSG00000004099_ENSMUST00000004202|mouse|control|control (ssRNA)
RNA: GGGAGUUCUACAGUCCGACGAUCAACACUCACGACCCGGUGCUGCUCCGGGUGGAGCACCCGACCCUGCUUGCCCAUGGGCUCAGGGUUGGUGACAGUGGUGCUGAAGAAGCCAUCCCACUCCAGACGCCCGUAGAGGCCAGCCAACAGAGGAUUGAGCAUCA
B8: chr7:65705844:65705845:+_ENSG00000169902_ENST00000304842|hu_mus|hu_hu_hu_mus_False|88_88 (ssRNA)
RNA: GGGAGUUCUACAGUCCGACGAUCAAACGGAUCUUUGUUACAUAAAUAAGGGGCUGGCUCCCCAUGUUUAACAAUGACCUCCAGAAGGAAGGCUUGCAUGGCAGAAUCUAGCACUUCAUCUGUGACACCCGCCUCAUCCAAGCGCAACAGAGGAUUGAGCAUCA
B9: chr1:88248876:88248877:-_ENSMUSG00000026234_ENSMUST00000027438|perfect_dup|motif|central (ssRNA)
RNA: GGGAGUUCUACAGUCCGACGAUCUUCCCUUUUAUUACAGGAAUUUAAAGCUUCUUUAGCGUCUUCGAAUGAAGCAAACUCGGUAAAUGCAUACCCUUUAGAUUUGCCAUUUUGGUUCUGGGGUACUUUGAUAAAAGUUGCUUUCAACAGAGGAUUGAGCAUCA
B10: chr10:116622694:116622695:+_ENSG00000151553_ENST00000369248|hu_mus|FALSE|FALSE (ssRNA)
RNA: GGGAGUUCUACAGUCCGACGAUCAUACAAUGAAUCUGAAACCCUAGAAAAACAGACUGAGCACAGUGUCAAACAAGCUCCGAGCCAUGCCGCGGCCGUGGCUGUGGCUGUACAGCUCAGCUGGUGACUGCCCCCCCCCCCCGACAACAGAGGAUUGAGCAUCA
B11: 16285674_16285794_385_CDS_ENSG00000170315_ENST00000535788|human|control|control (ssRNA)
RNA: GGGAGUUCUACAGUCCGACGAUCGUCGGGGGGGAUGCCUUCUUUAUCUUGGAUCUUGGCCUUCACAUUUUCGAUGGUGUCACUGGGCUCCACCUCCAGAGUGAUGGUCUUGCCGGUCAGGGUCUUCACGAAGAUCUGCAUACCCAACAGAGGAUUGAGCAUCA
B12: chr9:130210260:130210261:-_ENSG00000197958_ENST00000361436|hu_hu|FALSE|FALSE (ssRNA)
RNA: GGGAGUUCUACAGUCCGACGAUCGCCCACUGACUGGGCAGUCCCCAGGAUCUCUUUAAUGGUUCCAGAGAGUUCUCUGGCUAAGGAUCGGUGCCGCAUCUGUCGAGCAAUGUUGACAAUCUCAUCAAAAGUGAUAUUCCCACUCAACAGAGGAUUGAGCAUCA
B13: chr9:42776432:42776433:-_ENSMUSG00000059495_ENSMUST00000165665|mus_mus|motif|central (ssRNA)
RNA: GGGAGUUCUACAGUCCGACGAUCGUUCAACUCAGUAGUGAUUCAGUUUCGAAAACCUCUUUCUUCUCUCCCAAAUCCCAACGGUCAAUAGAAAAGACAACGACAAGGGAAAUCCACCCAUUUUCAAGUGCCUGCCAUUUAGUGCAACAGAGGAUUGAGCAUCA
B14: chr16:94690093:94690094:+_ENSMUSG00000040785_ENSMUST00000117648|mus_hu|mus_mus_mus_hu_True|1_18 (ssRNA)
RNA: GGGAGUUCUACAGUCCGACGAUCGGGCUGGGAUGACGGACACACAGCCUCGAUUCCAGGGGGAAAAAGUCUUAGUCGAUACUAAUUAAAAAGUGUUAAUGAUUUUUGAAAAUCAGAUGUAGAUUAAAAAAGAUGAAAGCACUUCAACAGAGGAUUGAGCAUCA
B15: chr15:50791314:50791315:+_ENSG00000138592_ENST00000307179|hu_hu|motif|central (ssRNA)
RNA: GGGAGUUCUACAGUCCGACGAUCACCAUUAUCCUGAUAAGCAUUUCAAGAGUUGUGUUGCUGAGCCUUUUAAAAGAUAACGGGUUUAUAACCUAUGUCUCCUUAUGUGGCUACAUCAGUUACUCGUGGUCCCAAUGAAGUAUACAACAGAGGAUUGAGCAUCA
B16: chr5:107067165:107067166:-_ENSMUSG00000049606_ENSMUST00000112696|mus_hu|FALSE|FALSE (ssRNA)
RNA: GGGAGUUCUACAGUCCGACGAUCAACUGAAGCAGAGGUAGGUAGUUUUUUAUUGGAAUGGGUGGGAUUCUUAGCAUGUGCUACAUCUGAUAACAAAAAUAAAACUUGGUGUUGACUUGCUUUCUGUGGUGUAGACAGCUGAAGCAACAGAGGAUUGAGCAUCA
B17: 24711598_24711718_5686_CDS_ENSMUSG00000032855_ENSMUST00000035565|mouse|control|control (ssRNA)
RNA: GGGAGUUCUACAGUCCGACGAUCGCUAUCUGGCUCACUGGUUCUGAUACUCAGACCACCCACAGGCACCUGUAUGGCCACUUCAACUGUGGCAUUGACUGAGCCCAACUGGUUCUCAGCUGUGACUCUGACCAAGUGCAGGCCCAACAGAGGAUUGAGCAUCA
B18: chr7:44244176:44244177:+_ENSG00000106636_ENST00000223369|hu_mus|hu_hu_hu_mus_False|1_38 (ssRNA)
RNA: GGGAGUUCUACAGUCCGACGAUCACUGUCGCUCCGGACGUAGACAUGGCAAAGAUACUCUUGUUCUUUGACAGAAGCUCUGCUGCCUUUCCCCGAGCGCUCCACAAUCAGUUGACUUGUAAAGGUCAUGAAUUCCUGAACGCUCAACAGAGGAUUGAGCAUCA
B19: chr16:47005550:47005551:-_ENSG00000069345_ENST00000563158|hu_hu|motif|central (ssRNA)
RNA: GGGAGUUCUACAGUCCGACGAUCUAAAGAAAAGGUAAAAAUAAAAAUAAUUGCAUUUUCAAGUAGAAGAGUGGGGAGAAGCGGCAGGAAUCCAGAAUCCAUUUAAUUUUUGUCUCCUGCAUUUGGAUUCUUAUCAGGAUGAUACAACAGAGGAUUGAGCAUCA
B20: chr7:54825262:54825263:-_ENSG00000132432_ENST00000352861|hu_hu|hu_hu_hu_mus_False|1_18 (ssRNA)
RNA: GGGAGUUCUACAGUCCGACGAUCCUGCCGGCUGGGCUCCACAAACUGCAUUACCUGAUCCAUGUUUGUUGGAUGGCGGAUUGAGAGCGUAGAGACACGUAGCUCAGGAGAGAACCGGAUGGAGGCCAACCGGAAGCGGAAUCCCAACAGAGGAUUGAGCAUCA
B21: chr11:70340070:70340071:+_ENSMUSG00000018286_ENSMUST00000018430|mus_mus|motif|central (ssRNA)
RNA: GGGAGUUCUACAGUCCGACGAUCCAGAUCUUCUCUGUACCGGUAACACAUCUCCUUAAAGAGACUGGCGGCUGUGUGGACGGGUGGAGGCUCGUUCAGUUCAAUACUGUGGAAACCAAGCUGGUAAGUGACAGCGUCUGCCACCAACAGAGGAUUGAGCAUCA
B22: chr10:1088697:1088698:-_ENSG00000067064_ENST00000381344|hu_mus|FALSE|FALSE (ssRNA)
RNA: GGGAGUUCUACAGUCCGACGAUCGUUCUCUUCCAGCUCGCCUGGGUUACUUAAUGGAUGACUACAGCAACUAUUGGUGAAACAACCUGGAAAGGUAAUUUUAGCAUCUGAUCUCUGCUGUAACAGGAGCUUAUUUUCAGUAUUCAACAGAGGAUUGAGCAUCA

Some of the results follow.

The experiment concerns the target T1, UNK ZnF1-3 (human, UniProt Q9C0B0 31-174).
T1 sequence: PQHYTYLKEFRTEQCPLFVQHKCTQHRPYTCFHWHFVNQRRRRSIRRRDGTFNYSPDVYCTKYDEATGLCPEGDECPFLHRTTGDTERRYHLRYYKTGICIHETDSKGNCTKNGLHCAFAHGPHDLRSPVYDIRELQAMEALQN
In words: nsRBNS (natural sequence RNA bind-n-seq); RBNS binding buffer (assumed for nsRBNS): 25 mM Tris pH 7.5, 150 mM KCl, 3 mM MgCl2, 0.01% Triton X-100, 500 ug/ml BSA, 20 U/ml SUPERase-In, 4 C; UNK is unkempt and MSI1 is Musashi-1; names of the RNAs are library labels; protein concentration not given here; high values mean tight binding.
Take B1: the binding signal is 0.688 enrichment R.
The result for B2 reads 1.41 enrichment R.
The result for B3 reads 1.13 enrichment R; that for B4, 0.657 enrichment R; that for B5, 2.02 enrichment R.
Consider B6, for which the binding signal was determined as 2.81 enrichment R.
As for B7, the figure is 1.01 enrichment R; as for B8, 0.784 enrichment R; as for B9, 0.771 enrichment R.
As for B10, the figure is 1.38 enrichment R.
The result for B11 reads 0.684 enrichment R.
As to B12, the binding signal is 1.16 enrichment R.
As for B13, the figure is 1.52 enrichment R.
In the case of B14, the binding signal came to 1.4 enrichment R.
The result for B15 reads 0.749 enrichment R; that for B16, 1.54 enrichment R; that for B17, 0.962 enrichment R.
The result for B18 reads 0.53 enrichment R; that for B19, 1.59 enrichment R.
B20: the binding signal worked out at 1.07 enrichment R.
The molecule B21 had a binding signal of 0.815 enrichment R.
As for B22, the figure is 0.999 enrichment R.

The values above are taken from PMC12136788.
